Results reported in the supplement of paper PMC4967469.
pIC50: −log10 of the molar value. IC50 is the fitted dose that halves viability relative to control wells, and lower means more sensitive; a fit beyond the top or the lowest dose is shown as a bound at that dose. AUC is the area under the same curve over the 256-fold range up to the top dose, as a fraction; it is 1 without any effect and falls as sensitivity rises. Where the top dose is marked as inferred, it was calculated from the reported fits.

Columns and labels:
Test in all cases: Viability of human cancer cell lines after 72 h of drug (GDSC screen)
XMD8-92 = compound: CCOc1cc(N2CCC(O)CC2)ccc1Nc1ncc2c(n1)N(C)c1ccccc1C(=O)N2C [XMD8-92]; conditions: top dose 10 µM; top dose inferred
Protocol: (§1)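 Human cancer cell lines in 384-well plates, medium with 10% serum, drug for 72 h over a 256-fold dose range (nine 2-fold or five 4-fold steps up to the top dose). Adherent lines were fixed and stained with the nucleic acid dye Syto60, suspension lines read with resazurin; signal relative to control wells, capped at 0 and 100%. One two-parameter sigmoid per drug and line, fitted in a mixed model over all curves with the slope shared within a line.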

ACHP (KIN001-260) = compound: N#Cc1c(C2CCNCC2)cc(-c2c(O)cccc2OCC2CC2)nc1N [ACHP (KIN001-260)]; conditions: top dose 20 µM; top dose inferred
Protocol: as §1

CH5424802 = compound: CCc1cc2c(cc1N1CCC(N3CCOCC3)CC1)C(C)(C)c1[nH]c3cc(C#N)ccc3c1C2=O [CH5424802]; conditions: top dose 5.12 µM; top dose inferred
Protocol: as §1

CAY10603 = compound: CC(C)(C)OC(=O)Nc1ccc(-c2cc(C(=O)NCCCCCCC(=O)NO)no2)cc1 [CAY10603]; conditions: top dose 20 µM; top dose inferred
Protocol: as §1

Cell Line	AUC (XMD8-92)	pIC50 (XMD8-92)	AUC (ACHP (KIN001-260))	pIC50 (ACHP (KIN001-260))	AUC (CH5424802)	pIC50 (CH5424802)	AUC (CAY10603)	pIC50 (CAY10603)
A549 (lung adenocarcinoma, adherent)	0.894	< 5.00						
EW-22 (Ewing sarcoma, adherent)	0.909	< 5.00						
JHU-029 (head and neck, adherent)	0.94	< 5.00						
SK-GT-2 (stomach, adherent)	0.886	< 5.00						
SCC90 (head and neck, adherent)	0.914	< 5.00						
STS-0421 (soft tissue, adherent)	0.884	< 5.00						
CL-34 (large intestine, adherent)	0.931	< 5.00						
SKM-1 (haematopoietic neoplasm, suspension)	0.784	5.33						
OCI-LY7 (B-cell lymphoma, suspension)	0.97	< 5.00						
NCC010 (kidney, adherent)	0.964	< 5.00						
MKN7 (stomach, adherent)	0.981	< 5.00						
VMRC-LCD (lung adenocarcinoma, adherent)	0.947	< 5.00						
PWR-1E (prostate, adherent)	0.984	< 5.00						
NCI-H2066 (small cell lung carcinoma, adherent)	0.968	< 5.00						
NCI-N87 (stomach, adherent)	0.924	< 5.00						
KATOIII (stomach, semi-adherent)	0.979	< 5.00						
Jurkat (T-cell leukaemia, suspension)	0.919	< 5.00						
U031 (kidney, adherent)			0.984	< 4.70	0.98	< 5.29	0.692	5.36
HT-1376 (bladder, adherent)			0.985	< 4.70	0.985	< 5.29	0.919	< 4.70
RPMI-2650 (head and neck, adherent)			0.973	< 4.70	0.984	< 5.29	0.477	5.97
KLE (endometrium, adherent)			0.97	< 4.70	0.971	< 5.29	0.6	5.56

Cell Line	AUC (XMD8-92)	pIC50 (XMD8-92)	AUC (ACHP (KIN001-260))	pIC50 (ACHP (KIN001-260))	AUC (CH5424802)	pIC50 (CH5424802)	AUC (CAY10603)	pIC50 (CAY10603)
MY-M12 (leukaemia, suspension)			0.931	< 4.70	0.664	6.01	0.211	6.81
EBC-1 (lung squamous cell carcinoma, adherent)			0.97	< 4.70	0.983	< 5.29	0.68	5.37
CHP-134 (neuroblastoma, suspension)			0.895	< 4.70	0.969	< 5.29	0.367	6.31
Mewo (melanoma, adherent)			0.984	< 4.70	0.977	< 5.29	0.659	5.42
C-33-A (cervix, adherent)			0.96	< 4.70	0.984	< 5.29	0.289	6.50
T98G (glioma, adherent)			0.978	< 4.70	0.988	< 5.29	0.613	5.60
HTC-C3 (thyroid, adherent)			0.973	< 4.70	0.958	< 5.29	0.418	6.14
23132-87 (stomach, adherent)			0.976	< 4.70	0.986	< 5.29	0.514	5.86
LAMA-84 (chronic myeloid leukaemia, suspension)			0.935	< 4.70	0.978	< 5.29	0.37	6.26
T-T (oesophagus, adherent)			0.967	< 4.70	0.984	< 5.29	0.78	5.09
ECC10 (stomach, suspension)			0.965	< 4.70	0.983	< 5.29	0.781	5.06
SKG-IIIa (cervix, adherent)			0.978	< 4.70	0.981	< 5.29	0.983	< 4.70
U-87-MG (glioma, adherent)			0.959	< 4.70	0.984	< 5.29	0.684	5.35
ST486 (Burkitt lymphoma, suspension)			0.68	5.43	0.979	< 5.29	0.329	6.35
MHH-PREB-1 (B-cell leukaemia, suspension)			0.844	4.92	0.989	< 5.29	0.236	6.62
COR-L88 (small cell lung carcinoma, adherent)			0.959	< 4.70	0.949	< 5.29	0.687	5.33
BCPAP (thyroid, adherent)			0.96	< 4.70	0.986	< 5.29	0.347	6.31
IMR-5 (neuroblastoma, adherent)			0.955	< 4.70	0.942	< 5.29	0.301	6.42
KMS-11 (myeloma, suspension)			0.938	< 4.70	0.991	< 5.29	0.379	6.21
SW837 (large intestine, adherent)			0.981	< 4.70	0.979	< 5.29	0.442	6.08
KOSC-2 (head and neck, adherent)			0.984	< 4.70	0.978	< 5.29	0.554	5.75

Cell Line	AUC (XMD8-92)	pIC50 (XMD8-92)	AUC (ACHP (KIN001-260))	pIC50 (ACHP (KIN001-260))	AUC (CH5424802)	pIC50 (CH5424802)	AUC (CAY10603)	pIC50 (CAY10603)
LS-411N (large intestine, adherent)			0.952	< 4.70	0.824	5.40	0.324	6.44
OACM5-1 (oesophagus, semi-adherent)			0.875	< 4.70	0.963	< 5.29	0.453	6.04
BE2-M17 (neuroblastoma, adherent)			0.986	< 4.70	0.986	< 5.29	0.597	5.63
EB2 (Burkitt lymphoma, suspension)			0.648	5.51	0.754	5.80	0.414	6.13
CFPAC-1 (pancreas, adherent)			0.977	< 4.70	0.984	< 5.29	0.937	< 4.70
QIMR-WIL (acute myeloid leukaemia, suspension)			0.868	4.76	0.979	< 5.29	0.228	6.68
A3-KAW (B-cell lymphoma, suspension)			0.825	5.05	0.96	< 5.29	0.34	6.30
HO-1-u-1 (head and neck, adherent)			0.966	< 4.70	0.987	< 5.29	0.568	5.72
H4 (glioma, adherent)			0.983	< 4.70	0.986	< 5.29	0.549	5.77
LOUCY (T-cell lymphoblastic leukaemia, suspension)			0.919	< 4.70	0.875	5.46	0.184	6.74
DU-145 (prostate, adherent)			0.974	< 4.70	0.985	< 5.29	0.501	5.90
CMK (acute myeloid leukaemia, suspension)			0.799	5.10	0.943	< 5.29	0.164	6.83
UACC-812 (breast, adherent)			0.991	< 4.70	0.991	< 5.29	0.744	5.22
G-292 Clone A141B1 (osteosarcoma, adherent)			0.913	< 4.70	0.95	< 5.29	0.935	< 4.70
G-361 (melanoma, adherent)			0.898	< 4.70	0.974	< 5.29	0.449	6.04
JSC-1 (B-cell lymphoma, suspension)			0.866	4.75	0.981	< 5.29	0.232	6.68
KMRC-1 (kidney, adherent)			0.986	< 4.70	0.986	< 5.29	0.592	5.64
NCI-H1581 (large cell lung carcinoma, semi-adherent)			0.983	< 4.70	0.989	< 5.29	0.495	5.91
NCI-H64 (small cell lung carcinoma, suspension)			0.901	4.85	0.996	< 5.29	0.413	6.11
